Experimental data reported in PubChem BioAssay (NCI).
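These data come from cells grown in 96-well plates and exposed to compound for 48 hours at five concentrations. GI50 = concentration required for 50% inhibition of growth.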 The source holds more than one record for some entries. They are shown here; other results are not. An entry can have further records. A record mostly stands for its own series of concentrations, not given here; a value can be the end of its range.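 TGI: total growth inhibition.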

Tests used:
Test in all cases: NCI-60 cell line screen, 48 h
[1] = test system: RPMI-8226 leukemia
[2] = test system: LXFL 529 NSCLC
[3] = test system: DMS 114 small cell lung
[4] = test system: SR leukemia
[5] = test system: 786-0 renal
[6] = test system: SK-MEL-5 melanoma
[7] = test system: KM12 colon
[8] = test system: NCI-H460 lung
[9] = test system: CAKI-1 renal
[10] = test system: SNB-19 CNS
[11] = test system: SW-620 colon
[12] = test system: DLD-1 colon
[13] = test system: UACC-62 melanoma
[14] = test system: M14 melanoma
[15] = test system: SK-OV-3 ovarian
[16] = test system: SF-268 CNS
[17] = test system: K-562 leukemia
[18] = test system: SK-MEL-2 melanoma
[19] = test system: M19-MEL melanoma
[20] = test system: EKVX NSCLC
[21] = test system: OVCAR-4 ovarian
[22] = test system: TK-10 renal
[23] = test system: IGROV1 ovarian
[24] = test system: SN12C renal
[25] = test system: NCI-H23 lung
[26] = test system: CCRF-CEM leukemia
[27] = test system: HCT-116 colon
[28] = test system: MOLT-4 leukemia
[29] = test system: UO-31 renal
[30] = test system: HOP-62 NSCLC
[31] = test system: XF 498 CNS
[32] = test system: SNB-75 CNS
[33] = test system: U251 CNS
[34] = test system: OVCAR-8 ovarian
[35] = test system: NCI-H522 lung
[36] = test system: HCT-15 colon
[37] = test system: COLO 205 colon
[38] = test system: HT29 colon
[39] = test system: A549 NSCLC
[40] = test system: MALME-3M melanoma
[41] = test system: ACHN renal
[42] = test system: SF-295 CNS
[43] = test system: LOX IMVI melanoma
[44] = test system: NCI-H226 lung
[45] = test system: HL-60(TB) leukemia
[46] = test system: HCC-2998 colon
[47] = test system: OVCAR-3 ovarian
[48] = test system: SF-539 CNS

SMILES: O=C(NC(=O)c1ccccc1[N+](=O)[O-])Nc1ccc(Oc2ncc(Br)cn2)c(Cl)c1
- TGI [1]: 68.8 nM and > 100 µM
- TGI [2]: 51.7 nM and > 100 µM
- TGI [3]: 15.5 nM and 2.54 µM
- TGI [4]: 68.9 nM and > 100 µM
- TGI [5]: 64.1 nM and > 100 µM
- TGI [6]: 78.7 nM and > 100 µM
- TGI [7]: 70.6 nM and > 20.2 µM
- TGI [8]: 71.5 nM and > 56.5 µM
- TGI [9]: 69.3 nM and > 100 µM
- TGI [10]: 71.8 nM and > 100 µM
- TGI [11]: 68.7 nM and > 100 µM
- TGI [12]: 52 nM and > 100 µM
- TGI [13]: 61.2 nM and > 100 µM
- TGI [14]: 47.6 nM and > 100 µM
- TGI [15]: 68.7 nM and > 91.8 µM
- TGI [16]: 74.1 nM and > 100 µM
- TGI [17]: 67.7 nM and > 100 µM
- TGI [18]: 36.7 nM and > 100 µM
- TGI [19]: 50.8 nM and > 100 µM
- TGI [20]: 72.9 nM and > 100 µM
- TGI [21]: 58.9 nM and > 100 µM
- TGI [22]: 73.7 nM and > 100 µM
- TGI [23]: 47.4 nM and > 100 µM
- TGI [24]: 70.8 nM and > 100 µM
- TGI [25]: 95 nM and > 100 µM
- TGI [26]: 67.1 nM and > 100 µM
- TGI [27]: 66.5 nM and > 27.2 µM
- TGI [28]: 55.4 nM and > 92 µM
- TGI [29]: 63.9 nM and > 100 µM
- TGI [30]: 72.3 nM and > 100 µM
- TGI [31]: 17.7 nM and > 85.2 µM
- TGI [32]: 56 nM and > 100 µM

SMILES: CCCCCCCCCCCCCC(=O)OC(/C=C/C(C)C)C(O)C(O)C(OC)C(=O)NC1CCCCN(C)C1=O (centres undefined)
- GI50 [33]: 2.23 µM and > 49 µM
- GI50 [34]: 2.68 µM and > 49 µM
- GI50 [35]: 2.54 µM and > 49 µM
- GI50 [36]: 1.32 µM and > 49 µM
- GI50 [37]: 992 nM and > 49 µM
- TGI [37]: 8.93 µM, 4.22 µM, > 49 µM
- GI50 [5]: 1.49 µM and > 49 µM
- GI50 [38]: 3.25 µM and > 49 µM
- GI50 [6]: 1.46 µM and > 49 µM
- GI50 [7]: 2.95 µM and > 49 µM
- GI50 [8]: 567 nM and > 49 µM
- GI50 [39]: 860 nM and > 49 µM
- GI50 [40]: 3.77 µM and > 49 µM
- GI50 [41]: 912 nM and > 49 µM
- GI50 [13]: 1.78 µM and > 49 µM
- GI50 [16]: 3.75 µM and > 49 µM
- GI50 [42]: 1.69 µM and > 49 µM
- GI50 [43]: 1.32 µM and > 49 µM
- GI50 [21]: 3.35 µM and > 49 µM
- GI50 [23]: 1.01 µM and > 49 µM
- GI50 [24]: 1.01 µM and > 49 µM
- TGI [24]: 4.78 µM and > 49 µM
- GI50 [44]: 991 nM and > 49 µM
- TGI [44]: 4.44 µM and > 49 µM
- GI50 [45]: 3.78 µM and > 49 µM
- GI50 [25]: 2.25 µM and > 49 µM
- GI50 [46]: 1.15 µM and > 49 µM
- GI50 [28]: 1.78 µM and > 49 µM
- GI50 [30]: 1.87 µM and > 49 µM
- GI50 [47]: 3.97 µM and > 49 µM
- GI50 [32]: 1.09 µM and > 49 µM
- GI50 [48]: 2.64 µM and > 49 µM
